# From publication PMC4336329 (PLoS ONE, 2015)
# Among all 310,000 compounds or so, about 2,200 (0.71%) showed an effect of 50% or more. The effect is printed as a negative number. This is one part of the list.
# Target: human ether-à-go-go-related gene (hERG) potassium channel (human, UniProt Q12809)
# Assay: primary screen, population patch clamp on CHO cells stably expressing hERG
# Sequence of human ether-à-go-go-related gene (hERG) potassium channel (Q12809 whole entry, looked up): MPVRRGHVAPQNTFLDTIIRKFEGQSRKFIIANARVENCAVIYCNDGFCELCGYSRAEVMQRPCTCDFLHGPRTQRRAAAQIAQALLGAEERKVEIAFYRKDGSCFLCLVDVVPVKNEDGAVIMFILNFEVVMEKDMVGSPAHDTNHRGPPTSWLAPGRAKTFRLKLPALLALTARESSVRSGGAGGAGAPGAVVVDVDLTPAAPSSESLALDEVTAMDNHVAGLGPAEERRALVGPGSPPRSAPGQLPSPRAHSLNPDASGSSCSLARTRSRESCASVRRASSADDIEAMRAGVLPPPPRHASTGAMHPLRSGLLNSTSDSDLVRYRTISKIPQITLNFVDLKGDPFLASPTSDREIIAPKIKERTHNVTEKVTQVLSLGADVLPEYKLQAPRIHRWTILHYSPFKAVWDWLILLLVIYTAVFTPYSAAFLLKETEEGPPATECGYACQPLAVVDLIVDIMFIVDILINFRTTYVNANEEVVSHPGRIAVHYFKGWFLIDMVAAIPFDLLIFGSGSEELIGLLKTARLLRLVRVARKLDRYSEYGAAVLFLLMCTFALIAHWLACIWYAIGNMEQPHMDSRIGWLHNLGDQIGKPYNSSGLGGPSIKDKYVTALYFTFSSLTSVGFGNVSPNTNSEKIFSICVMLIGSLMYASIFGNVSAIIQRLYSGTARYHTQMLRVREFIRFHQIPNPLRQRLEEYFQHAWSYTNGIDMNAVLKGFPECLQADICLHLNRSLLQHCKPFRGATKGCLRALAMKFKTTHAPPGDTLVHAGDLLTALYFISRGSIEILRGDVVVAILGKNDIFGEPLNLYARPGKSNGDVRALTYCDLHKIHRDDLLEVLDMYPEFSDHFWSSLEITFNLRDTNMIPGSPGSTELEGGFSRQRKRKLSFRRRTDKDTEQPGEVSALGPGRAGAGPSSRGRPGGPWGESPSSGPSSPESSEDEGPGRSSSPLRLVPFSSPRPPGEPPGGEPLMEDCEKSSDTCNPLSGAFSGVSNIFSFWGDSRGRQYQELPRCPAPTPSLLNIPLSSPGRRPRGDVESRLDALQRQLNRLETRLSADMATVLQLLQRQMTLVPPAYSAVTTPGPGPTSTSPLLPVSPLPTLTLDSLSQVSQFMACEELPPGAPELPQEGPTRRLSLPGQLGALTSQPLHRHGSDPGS
row,SMILES,"hERG current change (%, negative = inhibition) at 1uM [%]"
1,COc1ccc(-c2csc(NC(=O)CCn3cnc4ccccc4c3=O)n2)cc1OC,14.1
2,COC(=O)COc1c(Cl)cc(Cl)c2ccc(C)nc12,-3.07
3,C=CCn1c(O)c(C(CC)=Nc2cc(OC)ccc2OC)c(=O)[nH]c1=O,15.9
4,COc1ccc(NC(=O)C2C3C=CC(C3)C2C(=O)O)cc1 (centres unmarked),10.1
5,Cc1ccc(Nc2nc(C)cc(C)n2)c(Br)c1,10.5
6,O=[N+]([O-])c1ccc(Cl)c(S(=O)(=O)n2ccnc2)c1,9.82
7,CC(C(=O)OCC(=O)Nc1ccc2c(c1)OCO2)N1C(=O)c2ccccc2C1=O (centres unmarked),10.6
8,COc1ccc(C(CCNCc2ccccc2)c2ccc(F)cc2)cc1 (centres unmarked),-17.7
9,CC(=O)Nn1cc2c(c1-c1ccccc1)c(=O)n(C)c(=O)n2C,-4.59
10,COc1ccc(C(=O)NNC(=O)c2cc3ccccc3cc2O)cc1,16.4
11,COc1cccc(NC(=O)CCN2CCC(C(N)=O)CC2)c1,16.9
12,CC(=O)c1cccc(NC(=O)Nc2ccc(C)cc2)c1,0.196
13,COC(=O)[C@@H]1OC(=O)[C@H]2O[C@@]23[C@@]1(C)CC[C@@H]1[C@@]2(C)C=CC(=O)OC(C)(C)[C@@H]2CC(=O)[C@]13C,18.5
14,CCc1cc2c(=O)c(-c3nc4ccccc4n3C)c(C)oc2cc1OC(C)=O,8.15
15,Cc1ccc(C(=O)OCC(=O)NCCN2C(=O)CSC2=O)cc1,5.68
16,COc1ccc(NC(=O)c2nc(S(=O)(=O)Cc3cccc(C)c3)ncc2Cl)c(OC)c1,22
17,COc1ccc(-n2c3c(cc(C(=O)Nc4cccc(C)n4)c2=O)C(=O)CC(C)(C)C3)cc1,7.5
18,COc1cccc(NC(=O)c2cc(-c3ccncc3)nc3c(C)cc(C)cc23)c1,9.54
19,Brc1ccc(-c2ccc(/C=N/Nc3nncc(-c4ccccc4)n3)o2)cc1,21
20,O=C(NCCCN1CCOCC1)C1CCC(=O)N1CCc1ccccc1 (centres unmarked),14.9
21,CCOC(=O)N1CCC(NC(=O)CCc2c(C)nc3nc(C)nn3c2C)CC1,3.46
22,CNCCc1ccccn1.Cl,12.6

row,SMILES,"hERG current change (%, negative = inhibition) at 1uM [%]"
1,O=C(CSc1nc2[nH]ncc2c(=O)n1-c1ccccc1)c1ccc2c(c1)OCCO2,2.71
2,Cc1ccc(NC(=O)CSc2nnc3ccccn23)cc1,10.1
3,CNC(=O)c1sc(Nc2cc(C)ccc2C)nc1C,8.43
4,COC(=O)CCC(=O)NC(=S)Nc1ccc(S(=O)(=O)Nc2cc(OC)nc(OC)n2)cc1,18.2
5,Cc1cc([N+](=O)[O-])ccc1NC(=O)Nc1ccc(F)cc1F,14.9
6,O=C(NCC1CC1)C1(C(F)(F)F)C/C(=C\Cc2ccccc2)CCCO1 (centres unmarked),12.5
7,FC(F)(F)c1cnc2c(-c3ccc(Cl)cc3Cl)noc2c1,10.2
8,Cc1cccc(NC(=O)Nc2ccc3c(c2)CCC3)c1,10.1
9,COc1ccc(C(C(=O)NC2CCCCC2)N(C(=O)CCl)c2ccc(Cl)cc2)cc1 (centres unmarked),0.511
10,Cc1cc(N2CCCCC2)n2nc(C)c(-c3ccccc3)c2n1,10.6
11,C=CCn1c(SCC(=O)Nc2cccc(C(=O)OC)c2)nnc1C(C)NC(=O)c1cccs1 (centres unmarked),-1.28
12,COc1cnc(-c2ccccn2)nc1NC(C)C,7.11
13,O=C(Nc1nnc(SCC(=O)N2CCCCC2)s1)c1cccs1,5.02
14,Cc1ccc(/C=c2\sc3nc(-c4cccs4)nn3c2=O)o1,-4.82
15,COc1cc2c(cc1NC(=O)c1cc(-c3ccncc3)nc3ccc(C)cc13)oc1ccccc12,7.89
16,COCCN(C(=O)c1snc(C(N)=O)c1N)C(C(=O)NC1CCCCC1)c1ccc(F)cc1 (centres unmarked),13.1
17,CCN1CCn2c1nc(N1CCCCC1)nc2=O,10.7
18,Cc1nc(NC(=O)CN2CCN(c3cccc(Cl)c3)CC2)sc1C(=O)N(C)C,11.1
19,COc1cc(/C=C2\SC(=O)N(CCNC(=O)c3cnc(C)cn3)C2=O)cc(OC)c1OC,7.07
20,CCn1cc(C(=O)N[C@H](C(=O)NCCCN2CCOCC2)C(C)C)c(=O)c2cc3c(cc21)OCO3,8.44
21,c1ccc(-c2[nH]ncc2CN2CCN(Cc3ccc4c(c3)OCO4)CC2)cc1,-1.83
22,CNC(=S)N/N=C/c1cn(CCOc2cccc(OC)c2)c2ccccc12,10.1

row,SMILES,"hERG current change (%, negative = inhibition) at 1uM [%]"
1,O=C(NCc1ccc(F)cc1)C1CCC(=O)N1C1CCCCC1 (centres unmarked),-1.01
2,Cl.O=C(NN1CCN(Cc2ccccc2)CC1)c1ccc(N2CCOCC2)c([N+](=O)[O-])c1,-12.8
3,CC[C@@H](C)C(C(=O)N1CCN(C(=O)OC(C)(C)C)CC1)n1cc(-c2cn([C@@H](C)C(=O)N3CCN(C(=O)OC(C)(C)C)CC3)nn2)nn1 (some centres unmarked),8.79
4,FC(F)(F)c1nc2ccccc2nc1N/N=C/c1c(Cl)cccc1Cl,15.4
5,O=C(CC1CCCC1)Nc1ccc2c(c1)CCC2,2.93
6,Cc1ccc(S(=O)(=O)N(C)C)cc1NC(=O)c1cccs1,12.4
7,Cc1[nH]c2ccc(-c3n[nH]c(=S)n3Cc3ccccc3)cc2c1C,-0.49
8,O=c1[nH]c(SCc2ccc(Cl)cc2)nc2[nH]ncc12,4.26
9,O=C(NCCCNC(=O)C(F)(F)C(F)F)C(F)(F)C(F)F,2.64
10,COc1ccc(C(=O)NCCS(=O)(=O)NCc2ccc(F)cc2)cc1,-8.81
11,O=S(=O)(Nc1nc2ccc(S(=O)(=O)N3CCCCC3)cc2s1)c1ccccc1,3.25
12,NS(=O)(=O)c1ccc(NC(=O)CSc2nnc(Cc3cccs3)n2-c2ccccc2)cc1,9.2
13,CNc1nc(C)c(C(=O)OCC(=O)OC)s1,0.891
14,Cn1nccc1C(=O)NC1CCCc2c1cnn2-c1ccc(F)cc1F (centres unmarked),5.11
15,Cc1nn(-c2ccccc2)nc1C(=O)OCC(=O)N1CCC(C)CC1,-5.11
16,CCc1nc(SCC(=O)c2ccc3c(c2)OCCO3)c2ccccc2n1,2.53
17,O=C(c1ccc(F)cc1)N1CCCC(C(=O)N2CCc3ccccc3C2)C1 (centres unmarked),10.4
18,CCN(CC)CCCN=Cc1c(O)n(-c2ccccc2C)c(=O)c2ccccc12,-12.5
19,CCCCCCCC#Cc1ccccc1/C=N/S(=O)c1ccc(C)cc1 (centres unmarked),4.59
20,COc1ccc(C(=O)Nc2ccccc2)cc1NC(=O)c1ccc([N+](=O)[O-])cc1,-24.6
21,COc1cc(NC(=O)CN2CCN(CC(=O)Nc3ccccc3OC)CC2)cc(OC)c1,5.15
22,COc1ccc(N(C(=O)Cc2cccs2)C2C=CS(=O)(=O)C2)cc1 (centres unmarked),-0.253

row,SMILES,"hERG current change (%, negative = inhibition) at 1uM [%]"
1,O=C(C[n+]1cccc(/C=N/O)c1)N1CCCCCC1.[Cl-],11.9
2,O=C(C1=C(O)C(=O)N(CCN2CCOCC2)C1c1ccc(F)cc1)c1cccs1 (centres unmarked),15.7
3,CCOC(=O)C(NC(C)=O)(OCc1ccccc1)C(F)(F)F (centres unmarked),4.16
4,CN(CCO)c1cc(N2CCC3(CC2)OCCO3)c2nonc2c1[N+](=O)[O-],17.8
5,CC(C)(C)NC(=O)C(c1ccc(F)cc1)N(Cc1ccco1)C(=O)CCC(=O)Nc1ccccn1 (centres unmarked),-5.78
6,O=C(CCc1ccccc1)N=C1SC2CS(=O)(=O)CC2N1Cc1ccc(F)cc1 (centres unmarked),8.66
7,CCc1nc2ccccc2n1CC1CC1(Cl)Cl (centres unmarked),-14.5
8,COc1ccc(/C=N/NC(=O)c2[nH]c3ccc(Br)cc3c2-c2ccccc2)cc1,12.1
9,O=C1N(c2ccc(Cl)cc2)C(c2ccc(Cl)cc2)N2CCCN12 (centres unmarked),2.46
10,Oc1[nH]c2ccccc2c1C=NCC1CCCO1 (centres unmarked),16.2
11,COCCN1C(=O)C(=O)/C(=C(/O)c2ccc(S(=O)(=O)N3CCOCC3)cc2)C1c1ccc(O)cc1 (centres unmarked),13.2
12,CCC(C)N1C(=O)N(C)C2NC(=O)NC21 (centres unmarked),11.2
13,COc1cccc(-c2cc(C(=O)N3CCN(c4ccccc4OC)CC3)no2)c1,9.27
14,COc1ccc(-c2noc(N3CCC(C(=O)NCCCN4CCCC(C)C4)CC3)n2)cc1 (centres unmarked),-9.36
15,CC(C)(O)C#Cc1ccc(CN2CCN(Cc3ccccc3)C(CCO)C2)s1 (centres unmarked),8.04
16,COC(=O)c1ccc(NC(=O)Nc2ccc(F)c(Cl)c2)cc1,14
17,O=[N+]([O-])c1cc(C(F)(F)F)ccc1Sc1ccccn1,0.0303
18,Cc1nnc(SCC(=O)N2c3ccccc3C(C)(c3ccc(Cl)cc3)CC2(C)C)s1 (centres unmarked),3.42
19,COc1ccc(NC(=O)CN(C)S(=O)(=O)c2ccc3c(c2)CC(C)N3C(C)=O)c(OC)c1 (centres unmarked),10.3
20,COCCOC(=O)C1=C(C)N=C2SCCC(=O)N2C1c1ccc(C(=O)OC)cc1 (centres unmarked),14.9
